Test results taken from PubChem BioAssay AID463173 (ICCB-Longwood Screening Facility, Harvard Medical School, 2010).
Out of some 52,000 compounds screened, about 4,300 (8.3%) were called active. Rule as the data show it: active = survival mostly below about 52% (no sharp cut-off); inactive = mostly above about 56%. This is one part of the list.

system: DeltatarO mutant; assay: S. aureus survival, RN4220 and DeltatarO strains – OD600, teichoic acid synthesis inhibitors, primary screen (AID 463173); details: S. aureus RN4220 wild type/DeltatarO growth, OD600, 18 h, active compounds read low, screened at 18.75 µg/mL (by protocol)

| Compound | survival |
| --- | --- |
| Cc1ccc(-n2cnc3cc(C(=O)NCc4ccc(F)cc4)ccc32)c(C)c1 | inactive: 69% |
| CCCCc1ccc(-n2nc3cc(Cl)c(NC(=O)c4ccc(OC)cc4)cc3n2)cc1 | inactive: 72% |
| CCOC(=O)c1ccc2nc(C)cc(Nc3ccc(OC(C)C)cc3)c2c1 | inactive: 133% |
| Cc1cccc(C(=O)NCCc2nc3ccccc3n2Cc2ccc(Cl)cc2)c1 | inactive: 79% |
| Cc1cc(NC(=O)CCC(=O)N(c2ccc(F)cc2)C2(C(=O)NC3CCCCC3)CCCC2)no1 | inactive: 96% |
| CC(Sc1nc2c(c(=O)[nH]1)CCCC2)C(=O)Nc1cc(C(F)(F)F)ccc1Cl (centres undefined) | inactive: 51% |
| CCOC(=O)c1cccc(NS(=O)(=O)c2ccc3[nH]c4c(c3c2)CCCC4)c1 | inactive: 80% |
| Cc1ccc(OC(C)C(=O)N2CCN(CCc3ccncc3)CC2)cc1C (centres undefined) | inactive: 52% |
| Clc1ccc2oc(-c3ccccc3)nc2c1 | inactive: 70% |
| O=S(=O)(Nc1ccc(F)c(Cl)c1)c1ccc(Br)s1 | active: 10% |
| Cc1ccc(S(=O)(=O)c2nc(S(=O)(=O)c3ccc(C)cc3)c(NCCCOC(C)C)s2)cc1 | inactive: 75% |
| Cc1cccc(N2CCN(C(=O)Cn3ncc4c5ccccc5n(C)c4c3=O)CC2C)c1 (centres undefined) | inactive: 76% |
| O=c1c(S(=O)(=O)c2ccccc2)cn(Cc2ccc(F)cc2)c2cc(N3CCOCC3)c(F)cc12 | inactive: 73% |
| COc1ccc(C(=O)c2sc3nc(-c4ccc(C)cc4)cc(C(F)(F)F)c3c2N)cc1 | inactive: 134% |
| Cc1ccc(C)c(N2CCN(S(=O)(=O)c3ccc(-c4coc(C)n4)cc3)CC2)c1 | inactive: 98% |
| CCCCc1c(C)nc2c(-c3ccc(Cl)cc3)c(C)[nH]n2c1=O | active: -2% |
| CC(C)C(=O)N1CCN(c2ccc(NC(=O)c3ccccc3)cc2)CC1 | inactive: 84% |
| COc1cc(OC)cc(C(=O)Nc2ccc(-c3nc4cc(C(C)C)ccc4o3)cc2)c1 | active: 45% |
| CCOC(=O)C(CC)n1nc(C)c2c(C)n(-c3ccc(C)cc3)nc2c1=O (centres undefined) | inactive: 114% |
| COc1ccc(-n2cc(-c3ccc4c(c3)OCO4)n(CC(=O)Nc3cccc(C)c3C)c2=O)c(OC)c1 | inactive: 56% |
| CCCCN(CCCNC(=O)c1cc(Nc2ccc(OC)cc2)nc2ccccc12)Cc1ccccc1 | inactive: 86% |
| CCOC(=O)CNc1nc(Cl)nc(Nc2ccccc2)n1 | inactive: 84% |
| CC(=O)Nc1nonc1-c1nnc(SCC(=O)Nc2cc(Cl)ccc2C)n1C | inactive: 109% |
| COc1cccc(C2C=C(c3ccccc3)Nc3c(C(=O)Nc4ccccc4)cnn32)c1OC (centres undefined) | active: 13% |
